The list shows a part of the results.
System: PfSIP2 AP2 domain 1 (GST-tagged)
Experiment: gcPBM binding intensity (ln(normalized median fluorescence intensity)); higher = stronger DNA binding
Method in brief: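 GST-fused DNA-binding domains of P. falciparum, expressed in E. coli, were applied at about 25 μg on average for 1 h to an Agilent 4 × 180k array of primer-extended double-stranded 36-bp intergenic genomic probes and negative controls. Binding intensity is the highest Masliner-normalised natural-log median intensity across replicate spots of either probe orientation, measured with Alexa488 anti-GST antibody and a 488 nm scan.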

Sequence | gcPBM binding intensity (ln)
TATATGTATAGAAAATGTACATATAAATATATATAT [XGTACX_site3420] | 8.36
GTCATATTAATATGTACACACATATTTATATTTATA [CACACA_site6798] | 7.08
TTTTTACTATTTATATGACTAAAAATATATTGAATA [CACACA_negctrl_site188] | 6.94
TAAATTAATAAACAAGTGCATATATATATATATATA | 9.66
CAAGCACACGGACACACACACACACGCGCACGCACA [CACACA_site6307] | 8.65
TTTTATGTAACATCACGTACTTATATTTAAGTATTC [XGTACX_site7459] | 7.19
CAATTTATTTTTATTACACACTATCCAAGTAATTTC [CACACA_site7402] | 6.84
AAATATATCATACAAAGTACTTGGAATTAATATATA [XGTACX_site8907] | 6.82
AATATAATATAATGCACACATAAAACAAAAAAAAAA [CACACA_site3012] | 7.4
TAATTTTTCCAACTTTGTACAGATATATTAATAAAA [XGTACX_site7856] | 7.07
GTTGATACATGAAGCTGTACATAATATTTGTCATTT [XGTACX_site8628] | 7.35
TCTTTTAAATAACAACATAAATAAATAAATAAATAA [GTGCAC_negctrl_site319] | 7.36
ACATACAAGAATTAAACACACACAAAATATAAATTC [CACACA_site8985] | 6.85
TCTTGTATATACAGTAGTACTAAAAATTATTAAATA [XGTACX_site7896] | 7.15
TTATGTTGTAAATGCACACATACAAATACAGATACA [CACACA_site4876] | 7.46
GAAAACAAATATGTAGCACACATTCACATAATATAT [CACACA_site8731] | 7.14
ATTATAATGGTAAAGTGTACAAATTTTTATTACACC [XGTACX_site5274] | 7.15
ATAAATATAAAAATTTGTACATATATAGGTATAGGT [XGTACX_site1735] | 7.44
CATTATTTACCGCCGTGTACGTAATGAGAAATTAAA [XGTACX_site4662] | 6.91
TTATTTCAAATTAATTTACACACTTCATACTAAAAG [CACACA_site9039] | 7.18
TAATAAAAAAAGTGCACACACATAATATTTATATAT [CACACA_site7548] | 10.7
TTTATTTATTATTAAAGTACTAAATTACATTATTAT [XGTACX_site6624] | 6.93

Sequence | gcPBM binding intensity (ln)
TATTTAATTACATGAACACACATTAGATATTTTTAA [CACACA_site7405] | 6.86
TAATTTCTTATGTATTGTACATATAATATATGATAT [XGTACX_site4898] | 6.92
AAAATAAATAGATAAGCACACAAGCATATAGACATA [CACACA_site7958] | 6.67
AATATATTTATGCTCATGCACTTTTTTTTTTTTTTT [GTGCAC_site9654] | 8.89
TATATTTACATTGTAACACACATGAAATATTTATAT [CACACA_site6178] | 6.91
AGAATAAAAAGGAACACACACACACCCATATATATA [CACACA_site3590] | 7.49
TATGTTATATTATAAGGATAAATTTTGATTATATAA [TGCATGCA_negctrl_site600] | 6.86
ATGTACATTTTTTTCACACATACATTAATTTATGAG [CACACA_site5801] | 7.17
TAGACTAATCCCAAAAGTACAGAAAAATTATATTAT [XGTACX_site8663] | 7.09
TATCAATATTAAAAAGTGCAAAATAAAATATAAAAT [GTGCAC_site9486] | 8.09
TATATTATATATTGGGGTACATATATATAAATATAA [XGTACX_site2296] | 7.14
TTATTAAATTTTTTTTGTACTTATATATATATATAT [XGTACX_site2443] | 8.9
TATGAATGTATATGTTGTACATATAAATATTTATAT [XGTACX_site1146] | 7
ATTATTATATAGTGTGCATGCAATATTAATAAAACC [TGCATGCA_site245] | 8.5
AATAAATATATTACATATATGTGTAGTATTTTTTTA [TGCATGCA_negctrl_site268] | 6.74
TAAGCTTGTAACAGTTTACACACTAATATTTATAAA [CACACA_site3907] | 6.75
ACACATATATATTATTATTATATAATATATATATAT [CACACA_negctrl_site1545] | 8.63
ACATGTTTTATGTGCACACAAAGTTGTTATGAGGTT [CACACA_site4031] | 8.42
ATATAATATTTCATGTGGACACATTTTATGATTGTA [XGTACX_site8770] | 7.1
ATAGTAAACGAAATAAAAAGATTAGCATAATATCCT [CACACA_negctrl_site1730] | 6.66
ATATATTATATATATTACAACTTAAGAATATACATA [TGCATGCA_negctrl_site371] | 7.2
TCCTGTGATTATATAACACACATTATTGCTTATAAG [CACACA_site1518] | 7.06

Sequence | gcPBM binding intensity (ln)
ATTGTTTATATTGATTGTACTCATTTTTTTTTTATT [XGTACX_site1946] | 7.19
ATATATTGAAAAAAATGTACGTATTTTTTTATGTTA [XGTACX_site4654] | 7.17
ATTATATATATATATACACACACACCCTAAAAATAT [CACACA_site8463] | 7.53
AATCAAAATTAATTAACACACAATTTTAATATTCTT [CACACA_site2063] | 6.79
TATAATTTTCTTAGTAGTACATTTTAAATCTACTAC [XGTACX_site2621] | 7.08
TGTATCCACATATGTACACACATATATCTGTATATG [CACACA_site5668] | 7.32
ACTAATAACAAAAGCTTGCACTTTTTTTTTCCTAAT | 7.82
TATGTACAAATATGTACACACACACCGATATATATA [CACACA_site4487] | 7.52
AAAAAAAAAAAAAAAAGTACAAAAATTATATTAAGA [XGTACX_site4255] | 7.38
ATATAAGATTACAAAAATTATGTGTAAATATTTAAT [XGTACX_negctrl_site448] | 7
ACCTATATAAATTATACACACAAATATAAATATATA [CACACA_site2843] | 7.2
AATTATATATAACGTAGTACATATTATAAACCACGT [XGTACX_site8816] | 6.98
TTGTTATTCCACCGTTGTACAGTTATATACATACAC [XGTACX_site8296] | 7.31
TGTCATAAAACCGTTTGTACATATTAATAGACACCT [XGTACX_site4520] | 6.99
TATAATAATAATGATAGTACGTATGAGTTCAAGAAA [XGTACX_site4918] | 7.16
ATATTCCTTTAATATTGTACTATTTTTTTCCTTATA [XGTACX_site8659] | 7.06
TCCATGCAGAAACACACACACAAAAAAAAATTCTTT [CACACA_site4099] | 7.18
ATCTATGGGTAGTATACACACTGTATATTTAGGAAT [CACACA_site5569] | 7.05
ATTCTATTCTCCTTCACACACAAAAATATTTCATCA [CACACA_site2360] | 7.44
TTTTTGCAAAAAGAAATAATTTTATTTTAGTTCGGA [CACACA_negctrl_site1718] | 6.76
TTACGAATAAAACAGTGTACATTGAATTTCTATGAG [XGTACX_site4771] | 6.91
ATAATTGTTTAAAGGTGTACAATACATATATTTTAA [XGTACX_site3648] | 6.91

Sequence | gcPBM binding intensity (ln)
TCATATATTATATATTGTACAAAATAATAAGTATTT [XGTACX_site3987] | 7.02
ATGCAATTATATAGTAGTACAAATTTATAAATATAC [XGTACX_site4869] | 7.34
ATTATACACCCGCGCACACACAACAAAAAAAAAAAA [CACACA_site5871] | 8.04
ATATATATATATATGGGTACGTAAAAATATAATAAA [XGTACX_site4036] | 9.26
GTTGTTATATAAAATTGTACATAAAAAACAAAATAT [XGTACX_site5313] | 7.29
TAAAATTATTAATGAGTGCATTATAAAATCTATATA [GTGCAC_site9493] | 8.79
TTTTCTTTCTTTCAAACACACATTAATTTTATTCAT [CACACA_site2734] | 6.89
ATAAATGGCTATAGCATATTGTATATGTGATTATAA [CACACA_negctrl_site948] | 6.96
TATATATATATATATTGTACTAAATCATTTAAATGA [XGTACX_site8016] | 9.14
AAAAAACAAAAACACACGCACACAAAAAAAAAAAAA [CACACA_site802] | 7.25
ATGAAAATATTTAAAAGTACAGAAATATAAAACCTT [XGTACX_site403] | 6.92
CACAAATATACAAATACACACAAATATACACATATA [CACACA_site7176] | 7.01
AAAATATTTATCATTTGTACTTAGATGTAAACTTGA [XGTACX_site1778] | 6.75
TATAAAATATAAATAAATAAATAAATATATATATAT [TGCATGCA_negctrl_site448] | 9.26
TATTTTATACACTTGCTAAAACATTAACACATATGT [CACACA_negctrl_site1818] | 7.14
GTTGGTAGATTTATTTGTACATATGTATCATATTAT [XGTACX_site7135] | 7.23
AAAAATTTATTTTGTTTTTTAAGATTTTTTTTTTTT [CACACA_negctrl_site1210] | 6.73
ACATACATATATATACGTACATATATATTTATATAT [XGTACX_site5799] | 7.56
ATTCTAAATATCAGTGCACACATTTCTACGCAAAGT [CACACA_site474] | 9.9
AGCAAATACAAACACACACACACATATACATATATA [CACACA_site3497] | 7.2
TAATTACAAAAACATACACACAAAAAAAAAAAAAAA [CACACA_site3782] | 6.96
ATCTTATATATACGTTGTACTACAGGATATGTCATA [XGTACX_site5734] | 7.13

Reference: the supplement of paper PMC11417369
